Consider 62 sequences from the supplement of paper PMC10681739.

± gives the standard deviation of the averaged measurements. Whole data set: some 4,000 sequences, median “arbitrary fluorescence units” near 830, cut for the highest 2% near 6,500. Most of the strongest results are missing from this list.
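Also: Full-length recombinant human RUNX1 bound to double-stranded DNA microarray spots, detected with an Alexa488-labelled secondary antibody after the anti-RUNX1 primary, read as scanned spot fluorescence.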

Sequence of UniProt Q01196 (Q01196 whole entry): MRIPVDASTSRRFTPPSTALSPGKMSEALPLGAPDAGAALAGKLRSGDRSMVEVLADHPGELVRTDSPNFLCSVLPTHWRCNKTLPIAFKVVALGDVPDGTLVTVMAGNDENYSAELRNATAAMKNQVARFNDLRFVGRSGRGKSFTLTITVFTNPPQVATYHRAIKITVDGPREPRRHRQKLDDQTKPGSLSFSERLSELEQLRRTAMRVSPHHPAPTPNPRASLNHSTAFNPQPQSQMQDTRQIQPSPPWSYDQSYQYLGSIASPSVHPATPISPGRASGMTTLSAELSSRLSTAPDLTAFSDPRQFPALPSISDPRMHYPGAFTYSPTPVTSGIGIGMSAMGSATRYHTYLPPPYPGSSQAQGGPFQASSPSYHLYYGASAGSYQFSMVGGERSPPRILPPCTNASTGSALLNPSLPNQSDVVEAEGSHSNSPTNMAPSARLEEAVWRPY

In the test the target is RUNX1 (UniProt Q01196). Briefly: RUNX1 binding intensity (PBM fluorescence), RUNX1 alone (arbitrary fluorescence units); higher = stronger binding. The conditions noted are these: RUNX1 concentration 2 nM; ETS1 concentration 0 nM. Here is the method:
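gcPBM on 36-bp genomic-derived probes (partner site mutated) containing one RUNX1 site and no ETS1 site. Recombinant human RUNX1 (2 nM) was incubated alone or with ETS1 (25 nM) and detected by anti-RUNX1 antibody fluorescence. Values are medians over 4 replicate spots (not normalised). The probes sit in constant array flanks that are not printed.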
With CGAAGTCAGCGCGGTCAGAGAAAGGAGGTGATATAG, the RUNX1 binding intensity is 756.
GGGCTTGCGGATCTGGCCGCCGATTCCCGTCCAGGG showed an RUNX1 binding intensity of 795.
The same measure for CGGCGGTGGCGGTAGCTCCACTGCCGCTCCGATCGC: 710; for GCTCGGCAATACCAATATTGGGCTGTGGTATTTGAA: 863.
In the case of CTGTGAGGCGGCAGTGGCGGGCTCTGTGGGCGCAAG, the RUNX1 binding intensity was 657.
In turn, TTAGTAGGAACCACAAGGCTCTCACAGCATAAACTG returned an RUNX1 binding intensity of 897.
Then GCAGCGTCTCCATCCACGGCAGCGGCAGCGGTCGCT, with 813; and TGGTGTGAGGTGTGGCTTTGTCTTCATGAGCGGTGT, with 760; and CCGCCCACAAGGAGGACTGAGACGCTTTGCCTGATA, with 872.
The same measure for GGCCTCAGAAAACTTAACAGTTGTGGCAGAAGGTGA: 662.
The same measure for GCTGAGGCCGTAAGAGGGTGGGGCCGCGGTGGCTAG: 662; for ACTGTGGTTTATGAAAGAGCTTTTAGGAGACATTTA: 1340; for TGGTCGCGGTTTGGAACTGCGCGGGAGGTGGGTGGT: 2230.
CACCCCGCCTCTGCGGGACCACTTCAGGCGCCTTCT showed an RUNX1 binding intensity of 876.
Then GCCCCAGCAAGAGCGCTCCCGCGAACTGCGGCGGTG, with 814; and GTTTTGTGGCTTTTTAAGCATGACATACAGCATATT, with 1880.
TACCGGCGGTAATATAGTAAGGGCGGCAGTTCTCCT gave an RUNX1 binding intensity of 844.
The same measure for AGCTGCGGTAGGGGGCAGAACCGGGAATCGGGTGTT: 925; for TAAGTGAATTTGCTGCCCGCCTCCGCCCACAGCGTA: 782.
Then TTTCGAGAAAACTGGAAGTGCGTGGTCACGCCCCGC, with 713; and AAAATTAAAGCAGGCAGTAATCAACCACATCAAATG, with 844.
Then GGCTTCTTATTGTGGCTTACACTTGCTCAGTAGATG, with 914.
For CTCGGCGCGACGGCTATTCCCGTGACCGCCGGGTTC, the RUNX1 binding intensity came to 875.
The same measure for CACCTCCTCCTCGGGGGCCTCAGAAAACCACAGGGC: 1030.
The sequence CTGCAGATGGAGCCTGCTCCTGCAAACCCACTGCTG came in with an RUNX1 binding intensity of 682.
The sequence GAGGTGCTGCGGGCCAGCCAGCTGTCATCGTGTCTG displayed an RUNX1 binding intensity of 727.
For CTCGTGGGTGCCGTAAGTGGAGGCGGTTGGTGGGGT, the RUNX1 binding intensity was 755.
Then AGCAAGATAACCGCTGATCAGGAGCAGCAAGAGGCT, with 758; and TGCATGTGGGAGATAAGCAGAGGATCAGGCTGGGGT, with 695; and TGGAGGTGGTTACACACAGCTGTCTCCGTGAGGGTG, with 768.
The same measure for GTGCTCCCTGCTCGCACTGACTCATCCCGCAGCTGA: 791.
Consider AGGCAAACTACAGAAAGATCCTGCCCGCAACTTGGT, for which the RUNX1 binding intensity is 781.
The same measure for GGTGCGGCTGTGCGGGCGGGGCCGGGAGTGTGGGGA: 864; for CAGGGGGCTGAACGTAAAACGCCTTGTGGCCGACGC: 732.
Sequence GATTCCTGAACCGCGGGGAAGGCAGTCCCTGTGAGG registered an RUNX1 binding intensity of 828.
Turning to ACAACCCGCTCTGTGGCGGGGCTTCAGGTCGGGAGG, the RUNX1 binding intensity turned out to be 796.
The sequence GCTGCTAGGTGCCACCACAGGAGGAATCAAAAATAT yielded an RUNX1 binding intensity of 771.
Regarding CGGGACACATGAAGCCGTTGTGGGGCCCCGGGGCCA, the RUNX1 binding intensity stood at 702.
Then TTGTGGACGCGGTTTTGGGGGCGGGTATTCGGGCCT, with 1050; and AGGTTCCAAACCTCAACCTGCAGCCGTAAGGGGGAC, with 878; and AGAAGGCGCCTGAAGTGGTCCCGCAGAGGCGGGGTG, with 797.
The same measure for GGTGTCTGCGGCAGCGCCTCAGAGTGGTTCCAGTCG: 734.
Then CCTCCAGCAAGCGATAAGTGACTGTGGTGGAGAGAG, with 752; and AAGGGCCAGCAAGGGTGGAGTCTTTGCGGGGTGAGA, with 698; and AGGACGCCCTCCTGCCGCAGACTTCCAGCGCAAGCT, with 811.
TCGCCCGCCGCTTCATGTCGCGGCGCCGCAGAGGCC had an RUNX1 binding intensity of 781.
Turning to CTGTGGTTTCGGTGGCTGTGACGTCGGGAGGTAAGT, the RUNX1 binding intensity was found to be 837.
Sequence CTCTGCGGCAGCAAGCCCCACCCCGAAAGTCGGCTG yielded an RUNX1 binding intensity of 1080.
Then AGGTTGTGGTCGGTGACCTCCCAGTTCAGGCAGTCC, with 1220; and CAGTTCCTTCGTCAGGTTCCTGCACTTGGCCGCAGC, with 905; and CAAACAGGTTCCAGCTGGACTACAGCGCCCACAATG, with 789.
CGTACGCGCACTTTCGGTCTTTGTGGCTTGCAGCTC: the RUNX1 binding intensity was found to be 965.
Then GCGAGCACTTTCGGTGTGTGAGCCTGCGGTTGCTAC, with 908.
Turning to CTCTCCAGACCGCGCATTTTGGGTCTCGGAGGAGGT, the RUNX1 binding intensity came out at 735.
GGCTGCGACTTTCGGACTGCTCCTGGCCGCAGGGGG returned an RUNX1 binding intensity of 830 ± 48.
In turn, ACAAAAAAACCACACACCCAACGGCAACCATAGAGA registered an RUNX1 binding intensity of 2030.
Then GGGGGCAGGGAGCAGTGCAGCTCCTTAACCCACTTC, with 724; and CGCCGTAGGACGAAGCCGCGGCCGCAACGCTCCTGG, with 678.
Sequence TCAACAGCAGTAACCACAAGTCTTTCATGTCCCAGA gave an RUNX1 binding intensity of 2670.
Then GGGCCCCTGACGGATCAGGTGGTTGACGGGCACCTC, with 686; and TGCAGCTTCGTCCCGCTGCTCCGCCCAGCGGTTTCT, with 899; and GCCAGCAAGCCAAGGTCGCGCCCTCCACCGCAGGTC, with 746.
